From article PMC3601332
Results are given in words; binding and its absence hold for the method and conditions named. Some entries that bind do so weakly or less than the wild type. Tags and fused reporters may be left off the sequences shown.

Sequences of proteins named here, by UniProt entry; tags and fusion partners are left off. A change or cut given only in a name is not applied to a line headed by its entry. Residues count along the entry.
UniProt O14763: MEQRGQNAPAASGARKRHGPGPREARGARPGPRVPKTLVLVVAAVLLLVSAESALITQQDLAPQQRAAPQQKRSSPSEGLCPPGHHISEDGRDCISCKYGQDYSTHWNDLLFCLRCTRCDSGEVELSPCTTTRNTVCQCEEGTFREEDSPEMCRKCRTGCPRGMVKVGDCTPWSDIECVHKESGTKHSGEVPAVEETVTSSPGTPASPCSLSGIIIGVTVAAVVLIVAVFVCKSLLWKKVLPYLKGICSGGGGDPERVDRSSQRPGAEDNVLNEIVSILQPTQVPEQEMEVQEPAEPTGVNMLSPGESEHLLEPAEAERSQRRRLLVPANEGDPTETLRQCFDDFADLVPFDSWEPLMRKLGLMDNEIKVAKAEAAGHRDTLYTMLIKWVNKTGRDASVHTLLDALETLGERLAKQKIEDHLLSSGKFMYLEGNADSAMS
hTRAIL-R2 expressed on transfected NIH 3T3 cells: residues 56-440 of O14763
TRAIL-R2:Fc: residues 56-210 of O14763
UniProt O00220: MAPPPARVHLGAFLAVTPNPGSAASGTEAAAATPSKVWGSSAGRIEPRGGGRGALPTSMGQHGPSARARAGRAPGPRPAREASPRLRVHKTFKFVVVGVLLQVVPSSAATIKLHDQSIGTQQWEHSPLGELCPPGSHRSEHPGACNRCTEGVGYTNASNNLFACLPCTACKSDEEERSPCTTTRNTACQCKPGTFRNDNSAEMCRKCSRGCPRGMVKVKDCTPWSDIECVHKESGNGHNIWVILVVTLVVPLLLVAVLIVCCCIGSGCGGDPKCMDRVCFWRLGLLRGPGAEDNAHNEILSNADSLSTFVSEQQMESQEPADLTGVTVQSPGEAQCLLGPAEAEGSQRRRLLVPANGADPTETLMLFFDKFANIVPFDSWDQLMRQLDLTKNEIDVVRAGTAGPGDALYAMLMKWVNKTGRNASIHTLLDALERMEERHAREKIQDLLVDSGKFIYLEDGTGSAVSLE
TRAIL-R1 expressed on transfected 293T cells: residues 24-468 of O00220
TRAIL-R1:Fc: residues 24-239 of O00220
UniProt Q9QZM4, residues 53-381: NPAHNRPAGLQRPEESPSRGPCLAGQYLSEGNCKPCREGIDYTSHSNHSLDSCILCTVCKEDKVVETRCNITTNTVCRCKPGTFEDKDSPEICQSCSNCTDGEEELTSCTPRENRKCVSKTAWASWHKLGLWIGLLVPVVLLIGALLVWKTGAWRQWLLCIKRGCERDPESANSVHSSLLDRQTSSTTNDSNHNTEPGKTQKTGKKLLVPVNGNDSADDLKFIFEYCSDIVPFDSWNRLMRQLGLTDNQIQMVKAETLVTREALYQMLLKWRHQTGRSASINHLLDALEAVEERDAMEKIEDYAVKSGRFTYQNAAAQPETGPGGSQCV

Key:
[1] = molecular target: TRAIL-R2 expressed on transfected 293T cells (human) (UniProt O14763); test: flow cytometry on cells; UL141:Fc protein (~5 ug/ml) used to stain 293T cells transfected with all the known TNFRs; positive controls included for all receptor-ligand interactions (Figure S3C); only the binder purified
[2] = molecular target: TRAIL-R1 expressed on transfected 293T cells (human) (UniProt O00220); test: as above
TRAIL-R1:Fc (human) = TRAIL-R1:Fc (human) (UniProt O00220); test: ELISA; binding assay between Fc-fusion proteins (Figure S3A); who was immobilised is not told in the main text; both purified
TRAIL-R2:Fc (human) = TRAIL-R2:Fc (human) (UniProt O14763); test: as above
[3] = molecular target: hTRAIL-R2 expressed on transfected NIH 3T3 cells (human) (UniProt O14763); test: flow cytometry on cells; UL141:Fc binding to mouse NIH 3T3 fibroblasts, untransfected or transfected with hTRAIL-R2 (Figure S3B); only the binder purified
[4] = molecular target: mouse TRAIL-R2 (mTRAIL-R2) on NIH 3T3 fibroblasts (mouse (endogenous in NIH 3T3)) (UniProt Q9QZM4); test: as above

B1: UL141:Fc (fusion protein of the UL141 ectodomain with the Fc region of human IgG1) (Fc fusion, UniProt Q6RJQ3 37-278)
chain: DIAEKMWAENYETTSPAPVLVAEGEQVTIPCTVMTHSWPMVSIRARFCRSHDGSDELILDAVKGHRLMNGLQYRLPYATWNFSQLHLGQIFSLTFNVSTDTAGMYECVLRNYSHGLIMQRFVILTQLETLSRPDEPCCTPALGRYSLGDQIWSPTPWRLRNHDCGMYRGFQRNYFYIGRADAEDCWKPACPDEEPDRCWTVIQRYRLPGDCYRSQPHPPKFLPVTPAPPADIDTGMSPWATR
binding [1]: binds | binding [2]: no binding (tested: ∼5 μg/ml) | binding (TRAIL-R1:Fc (human)): binds | binding (TRAIL-R2:Fc (human)): binds | binding [3]: binds | binding [4]: no binding
